# Source: the supplement of paper PMC8728848
# The list shows a part of the results.
# Experiments:
# Test in all cases: glycan array binding signal (z-score within array); higher = stronger binding
# Details in all cases: glycan notation: IUPAC condensed, linker removed
# [1] = target: Fuc(a1-2)Gal(b1-4)GlcNAc6S
# Method in brief: (§1)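 Glycan array data were curated from 3228 arrays in the Consortium for Functional Glycomics database and kept only where the protein sequence was available. Glycan names were converted to IUPAC-condensed notation, and columns mapping to the same glycan were averaged. The binding signal is a within-array Z-score, averaged across arrays of the same protein sequence at different concentrations or buffers and across linkers. Negative Z-scores can be read as non-binding.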
# [2] = target: Fuc(a1-2)Gal(b1-4)[Fuc(a1-3)]GlcNAc
# Method in brief: as §1
# [3] = target: Fuc(a1-2)Gal(b1-4)[Fuc(a1-3)]GlcNAc(b1-2)Man(a1-3)[Fuc(a1-2)Gal(b1-4)[Fuc(a1-3)]GlcNAc(b1-2)Man(a1-6)]Man(b1-4)GlcNAc(b1-4)GlcNAc
# Method in brief: as §1
# [4] = target: Fuc(a1-2)Gal(b1-4)[Fuc(a1-3)]GlcNAc(b1-2)[Fuc(a1-2)Gal(b1-4)[Fuc(a1-3)]GlcNAc(b1-4)]Man(a1-3)[Fuc(a1-2)Gal(b1-4)[Fuc(a1-3)]GlcNAc(b1-2)Man(a1-6)]Man(b1-4)GlcNAc(b1-4)GlcNAc
# Method in brief: as §1
# [5] = target: Fuc(a1-2)Gal(b1-4)[Fuc(a1-3)]GlcNAc(b1-3)Gal(b1-4)[Fuc(a1-3)]GlcNAc
# Method in brief: as §1
# [6] = target: Fuc(a1-2)Gal(b1-4)[Fuc(a1-3)]GlcNAc(b1-3)Gal(b1-4)[Fuc(a1-3)]GlcNAc(b1-3)Gal(b1-4)[Fuc(a1-3)]GlcNAc
# Method in brief: as §1
# [7] = target: Fuc(a1-2)Gal(b1-4)[Fuc(a1-3)]GlcNAc(b1-3)GalNAc
# Method in brief: as §1
# [8] = target: Fuc(a1-2)Gal6S(b1-4)Glc
# Method in brief: as §1
# [9] = target: Fuc(a1-2)Gal6S(b1-4)Glc6S
# Method in brief: as §1
# [10] = target: Fuc(a1-2)Gal6S(b1-4)GlcNAc
# Method in brief: as §1
# [11] = target: Fuc(a1-2)GlcNAc
# Method in brief: as §1
# [12] = target: Fuc(a1-2)[Gal(a1-3)]Gal
# Method in brief: as §1
# [13] = target: Fuc(a1-2)[Gal(a1-3)]Gal(b1-3)GalNAc
# Method in brief: as §1
# [14] = target: Fuc(a1-2)[Gal(a1-3)]Gal(b1-3)GlcNAc
# Method in brief: as §1
# [15] = target: Fuc(a1-2)[Gal(a1-3)]Gal(b1-3)GlcNAc(b1-2)Man(a1-3)[Fuc(a1-2)[Gal(a1-3)]Gal(b1-3)GlcNAc(b1-2)Man(a1-6)]Man(b1-4)GlcNAc(b1-4)GlcNAc
# Method in brief: as §1
# [16] = target: Fuc(a1-2)[Gal(a1-3)]Gal(b1-3)GlcNAc(b1-2)Man(a1-3)[Fuc(a1-2)[Gal(a1-3)]Gal(b1-3)GlcNAc(b1-2)Man(a1-6)]Man(b1-4)GlcNAc(b1-4)[Fuc(a1-6)]GlcNAc
# Method in brief: as §1
# [17] = target: Fuc(a1-2)[Gal(a1-3)]Gal(b1-3)GlcNAc(b1-3)GalNAc
# Method in brief: as §1
# [18] = target: Fuc(a1-2)[Gal(a1-3)]Gal(b1-4)Glc
# Method in brief: as §1
# [19] = target: Fuc(a1-2)[Gal(a1-3)]Gal(b1-4)GlcNAc
# Method in brief: as §1
# [20] = target: Fuc(a1-2)[Gal(a1-3)]Gal(b1-4)GlcNAc(b1-2)Man(a1-3)[Fuc(a1-2)[Gal(a1-3)]Gal(b1-4)GlcNAc(b1-2)Man(a1-6)]Man(b1-4)GlcNAc(b1-4)GlcNAc
# Method in brief: as §1
# [21] = target: Fuc(a1-2)[Gal(a1-3)]Gal(b1-4)GlcNAc(b1-2)Man(a1-3)[Fuc(a1-2)[Gal(a1-3)]Gal(b1-4)GlcNAc(b1-2)Man(a1-6)]Man(b1-4)GlcNAc(b1-4)[Fuc(a1-6)]GlcNAc
# Method in brief: as §1
# [22] = target: Fuc(a1-2)[Gal(a1-3)]Gal(b1-4)GlcNAc(b1-3)GalNAc
# Method in brief: as §1
# [23] = target: Fuc(a1-2)[Gal(a1-3)]Gal(b1-4)[Fuc(a1-3)]Glc
# Method in brief: as §1
# [24] = target: Fuc(a1-2)[Gal(a1-3)]Gal(b1-4)[Fuc(a1-3)]GlcNAc
# Method in brief: as §1
# [25] = target: Fuc(a1-2)[Gal(a1-3)]Gal(b1-4)[Fuc(a1-3)]GlcNAc(b1-3)GalNAc
# Method in brief: as §1
# [26] = target: Fuc(a1-2)[Gal(a1-4)]Gal(b1-4)GlcNAc
# Method in brief: as §1
# [27] = target: Fuc(a1-2)[GalNAc(a1-3)]Gal
# Method in brief: as §1
# [28] = target: Fuc(a1-2)[GalNAc(a1-3)]Gal(b1-3)GalNAc(a1-3)[Fuc(a1-2)]Gal(b1-4)GlcNAc
# Method in brief: as §1
# [29] = target: Fuc(a1-2)[GalNAc(a1-3)]Gal(b1-3)GlcNAc
# Method in brief: as §1
# [30] = target: Fuc(a1-2)[GalNAc(a1-3)]Gal(b1-3)GlcNAc(b1-2)Man(a1-3)[Fuc(a1-2)[GalNAc(a1-3)]Gal(b1-3)GlcNAc(b1-2)Man(a1-6)]Man(b1-4)GlcNAc(b1-4)GlcNAc
# Method in brief: as §1
binder,measurement,setting,value
"BC2L-A (Burkholderia cenocepacia), Q1BKJ8_BURCA (protein) ADSQTSSNRAGEFSIPPNTDFRAIFFANAAEQQHIKLFIGDSQEPAAYHKLTTRDGPREATLNSGNGKIRFEVSVNGKPSATDARLAPINGKKSDGSPFTVNFGIVVSEDGHDSDYNDGIVVLQWPIG",glycan array binding signal (z-score),[1],0.072
same,glycan array binding signal (z-score),[2],-0.262
same,glycan array binding signal (z-score),[3],0.004
same,glycan array binding signal (z-score),[4],-0.194
same,glycan array binding signal (z-score),[5],-0.208
same,glycan array binding signal (z-score),[6],-0.115
same,glycan array binding signal (z-score),[7],-0.21
same,glycan array binding signal (z-score),[8],-0.176
same,glycan array binding signal (z-score),[9],-0.178
same,glycan array binding signal (z-score),[10],-0.173
same,glycan array binding signal (z-score),[11],-0.178
same,glycan array binding signal (z-score),[12],-0.28
same,glycan array binding signal (z-score),[13],-0.219
same,glycan array binding signal (z-score),[14],-0.253
same,glycan array binding signal (z-score),[15],0.405
same,glycan array binding signal (z-score),[16],1.1
same,glycan array binding signal (z-score),[17],-0.219
same,glycan array binding signal (z-score),[18],-0.291
same,glycan array binding signal (z-score),[19],-0.265
same,glycan array binding signal (z-score),[20],-0.107
same,glycan array binding signal (z-score),[21],0.323
same,glycan array binding signal (z-score),[22],-0.217
same,glycan array binding signal (z-score),[23],-0.219
same,glycan array binding signal (z-score),[24],-0.252
same,glycan array binding signal (z-score),[25],-0.218
same,glycan array binding signal (z-score),[26],-0.212
same,glycan array binding signal (z-score),[27],-0.284
same,glycan array binding signal (z-score),[28],-0.22
same,glycan array binding signal (z-score),[29],-0.291
same,glycan array binding signal (z-score),[30],-0.104
